Data: PubChem BioAssay AID2675 (National Center for Advancing Translational Sciences (NCATS), 2010)
Screen size: about 280,000 compounds; about 100 (0.036%) were called active. The shares of active, inactive and inconclusive entries below differ from those in the screen. Calls follow the shape of the dose curve; as a rule, active = well fitted inhibition curve with a large enough effect in the signal ratio, with a control signal flat (not every such curve was filed as active); inconclusive = small, poorly fitted or top-dose-only effect, or effect the other way, or a change in a side signal; inactive = no such curve, though single readings can be large or run the other way; the % refers to the signal ratio. Potencies beside an inconclusive call are fits to weak or partial responses and may not hold up. “Side channel” marks fits to a control or component signal instead of the main read-out.

Target: Muscleblind-like protein 1 (Homo sapiens) (UniProt Q9NR56)
Test: qHTS Assay for Inhibitors of MBNL1-poly(CUG) RNA binding
Conditions: TR-FRET MBNL1-His/biotin-(CUG)12 binding, 665/545 ratio; series mostly up to 57.5 µM
Outline: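 Compounds (final 92 nM to 58 uM) are added to His-tagged MBNL1 and biotin-(CUG)12, then terbium anti-His antibody and streptavidin-XL665 (5 nM final). After 60 min at room temperature, the 665/545 nm ratio is read.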
Potency is read from the fitted curve at half-maximal effect; tags tell the direction and shape of the fitted curve or compound fluorescence and quenching.

UniProt Q9NR56, sequence (Q9NR56 whole entry, looked up): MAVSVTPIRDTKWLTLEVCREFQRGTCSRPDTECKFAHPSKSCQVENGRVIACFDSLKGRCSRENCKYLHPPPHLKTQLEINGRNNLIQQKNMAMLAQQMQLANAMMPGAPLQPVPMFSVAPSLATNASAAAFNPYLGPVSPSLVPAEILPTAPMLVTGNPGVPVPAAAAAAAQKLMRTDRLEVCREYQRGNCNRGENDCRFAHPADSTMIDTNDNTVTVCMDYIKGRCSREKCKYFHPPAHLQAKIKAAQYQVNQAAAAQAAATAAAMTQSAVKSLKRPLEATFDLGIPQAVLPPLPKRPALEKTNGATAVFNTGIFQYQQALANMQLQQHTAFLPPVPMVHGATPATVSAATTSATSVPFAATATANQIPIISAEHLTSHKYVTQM

| Structure (SMILES) | Potency |
| --- | --- |
| O=[N+]([O-])c1ccc(CSc2ncnc3ccccc23)cc1 | inconclusive: 20 µM [quencher, side channel, partial curve] |
| COc1ccc(/C=N/Nc2ccc(C(=O)O)cc2)c(OC)c1OC | inconclusive: 31.6 µM [quencher, side channel, partial curve] |
| CN(CCNC(=O)c1ccc(CS(=O)(=O)c2ccc(Br)cc2)o1)CCc1ccccc1 | inactive |
| CCOc1ccc(/C=N/NC(N)=S)cc1 | inconclusive: 39.8 µM [quencher, side channel, single point] |
| CN=C1C([N+](=O)[O-])=CC=C2C1=NC1(CCCCC1)N2O | inconclusive: 2.82 µM [quencher, side channel, full curve] |
| Cc1cc(-c2ccc(/C=N/n3cnnc3)o2)c([N+](=O)[O-])cc1C | inconclusive: 14.1 µM [quencher, side channel, partial curve] |
| CN(Cc1ccco1)S(=O)(=O)c1ccc(CN2C(=O)c3cccnc3C2=O)s1 | inconclusive: 25.1 µM [quencher, side channel, partial curve] |
| CCCSc1cc(=O)n(-c2ccccc2)nc1C(=O)OCC | inconclusive: 11.2 µM [quencher, side channel, partial curve] |
| c1ccc2c(c1)C(=NCC1CCCO1)NC2=NCC1CCCO1 (stereo unspecified) | inconclusive: 25.1 µM [quencher, side channel, partial curve] |
| CCOc1ccc(C(=O)OC2CCN(C)CC2)cc1 | inconclusive: 39.8 µM [quencher, side channel, single point] |
| O=[N+]([O-])c1cc(-c2ccc(/C=N/c3nc4ccccn4c3-c3ccco3)o2)ccc1Cl | inconclusive: 15.8 µM [quencher, side channel, partial curve] |
| Cc1ccc(C)c(/C=N/NC(=S)NCCc2ccccc2)c1 | inactive |
| Cc1cc2cc(CNC(=S)Nc3ccc(OC(F)F)cc3)ccc2n1C | inconclusive: 39.8 µM [quencher, side channel, single point] |
| O=C(NCCCO)C(=O)c1c(-c2ccccc2)cc2ccccn12 | inconclusive: 15.8 µM [quencher, side channel, partial curve] |
| Nc1c(C(=O)Nc2ccc(S(=O)(=O)N3CCCC3)cc2)sc2nc3ccc(OC(F)(F)F)cc3cc12 | inactive |
| CCOC(=O)C1=C(C)N=c2s/c(=C\c3cccc(OCC(=O)O)c3)c(=O)n2C1c1ccccc1 (stereo unspecified) | inconclusive: 15.8 µM [quencher, side channel, partial curve] |
